For 32 sequences, binding signal (RPM ratio (pull-down/input)) results are on record in PMC12820563.

The other results are listed elsewhere or left out. The list includes weakly bound sequences.

The target of this experiment is T1, MBP-FoxP3dN (UniProt Q99JB6).
T1 sequence: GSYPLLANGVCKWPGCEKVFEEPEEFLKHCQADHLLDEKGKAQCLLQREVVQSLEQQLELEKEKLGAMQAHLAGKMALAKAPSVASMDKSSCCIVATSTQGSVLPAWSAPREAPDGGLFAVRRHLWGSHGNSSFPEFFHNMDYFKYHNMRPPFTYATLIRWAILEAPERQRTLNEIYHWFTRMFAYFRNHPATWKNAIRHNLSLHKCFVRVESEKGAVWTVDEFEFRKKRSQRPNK
Put plainly: PD-seq (MBP pull-down with sequencing). To be noted: 20 mM Tris-HCl pH 7.5, 100 mM NaCl, 1.5 mM MgCl2, 0.4 uM protein, 0.1 uM dsDNA library, 30 min, room temperature, amylose pull-down; high values mean tight binding; double strand, one strand shown.
For the sequence “GATGATTGTTCTCCCAGCTGATGAATTCTGCCACTCGAGTAAACAAATTTTCCTAATCTTTCTGTTCAAGCGCCATCTAC”, the binding signal (RPM ratio (pull-down/input)) stood at 6.04.

As for “GATGATTGTTCTCCCAGCTGATGAATTCTATAGGTCGAGTAAACAAATTTTCCTAATCTTTCTGTTCAAGCGCCATCTAC”, the binding signal (RPM ratio (pull-down/input)) was determined as 0.372.

As for “GATGATTGTTCTCCCAGCTGATGAATTCCCCATCTCGAGTAAACAAATTTTCCTAATCTTTCTGTTCAAGCGCCATCTAC”, the binding signal (RPM ratio (pull-down/input)) was found to be 0.283.

As for “GATGATTGTTCTCCCAGCTGATGAATTTATTATTTCGAGTAAACAAATTTTCCTAATCTTTCTGTTCAAGCGCCATCTAC”, the binding signal (RPM ratio (pull-down/input)) was found to be 5.57.

Take “GATGATTGTTCTCCCAGCTGATGAATTCCCAACCTCGAGTAAACAAATTTTCCTAATCTTTCTGTTCAAGCGCCATCTAC”: the binding signal (RPM ratio (pull-down/input)) stood at 0.244.

As to “GATGATTGTTCTCCCAGCTGATGAATTCTGGGTGTCGAGTAAACAAATTTTCCTAATCTTTCTGTTCAAGCGCCATCTAC”, the binding signal (RPM ratio (pull-down/input)) is 0.658.

“GATGATTGTTCTCCCAGCTGATGAATTCATTCCGTCGAGTAAACAAATTTTCCTAATCTTTCTGTTCAAGCGCCATCTAC”: the binding signal (RPM ratio (pull-down/input)) is 0.236.

For the sequence “GATGATTGTTCTCCCAGCTGATGAATTTCGTACGTCGAGTAAACAAATTTTCCTAATCTTTCTGTTCAAGCGCCATCTAC”, the binding signal (RPM ratio (pull-down/input)) is 0.52.

On to “GATGATTGTTCTCCCAGCTGATGAATTGGAATTCTCGAGTAAACAAATTTTCCTAATCTTTCTGTTCAAGCGCCATCTAC”, for which the binding signal (RPM ratio (pull-down/input)) stood at 0.526.

For the sequence “GATGATTGTTCTCCCAGCTGATGAATTCTAATCTTCGAGTAAACAAATTTTCCTAATCTTTCTGTTCAAGCGCCATCTAC”, the binding signal (RPM ratio (pull-down/input)) came to 0.335.

Regarding “GATGATTGTTCTCCCAGCTGATGAATTGGTTCCATCGAGTAAACAAATTTTCCTAATCTTTCTGTTCAAGCGCCATCTAC”, the binding signal (RPM ratio (pull-down/input)) amounted to 0.356.

Consider “GATGATTGTTCTCCCAGCTGATGAATTGTGGATATCGAGTAAACAAATTTTCCTAATCTTTCTGTTCAAGCGCCATCTAC”, for which the binding signal (RPM ratio (pull-down/input)) was 0.944.

With “GATGATTGTTCTCCCAGCTGATGAATTAGGGAACTCGAGTAAACAAATTTTCCTAATCTTTCTGTTCAAGCGCCATCTAC”, the binding signal (RPM ratio (pull-down/input)) stood at 0.254.

Turning to “GATGATTGTTCTCCCAGCTGATGAATTGCATACATCGAGTAAACAAATTTTCCTAATCTTTCTGTTCAAGCGCCATCTAC”, the binding signal (RPM ratio (pull-down/input)) came out at 1.6.

Regarding “GATGATTGTTCTCCCAGCTGATGAATTCCACTGCTCGAGTAAACAAATTTTCCTAATCTTTCTGTTCAAGCGCCATCTAC”, the binding signal (RPM ratio (pull-down/input)) worked out at 0.312.

For the sequence “GATGATTGTTCTCCCAGCTGATGAATTGCCCGAGTCGAGTAAACAAATTTTCCTAATCTTTCTGTTCAAGCGCCATCTAC”, the binding signal (RPM ratio (pull-down/input)) stood at 0.303.

As for “GATGATTGTTCTCCCAGCTGATGAATTGAACGTCTCGAGTAAACAAATTTTCCTAATCTTTCTGTTCAAGCGCCATCTAC”, the binding signal (RPM ratio (pull-down/input)) was 0.388.

“GATGATTGTTCTCCCAGCTGATGAATTTTATGGATCGAGTAAACAAATTTTCCTAATCTTTCTGTTCAAGCGCCATCTAC”: the binding signal (RPM ratio (pull-down/input)) was determined as 0.6.

For “GATGATTGTTCTCCCAGCTGATGAATTAGCTGTGTCGAGTAAACAAATTTTCCTAATCTTTCTGTTCAAGCGCCATCTAC”, the binding signal (RPM ratio (pull-down/input)) turned out to be 2.61.

As for “GATGATTGTTCTCCCAGCTGATGAATTATGGTCATCGAGTAAACAAATTTTCCTAATCTTTCTGTTCAAGCGCCATCTAC”, the binding signal (RPM ratio (pull-down/input)) is 0.779.

“GATGATTGTTCTCCCAGCTGATGAATTGACCAACTCGAGTAAACAAATTTTCCTAATCTTTCTGTTCAAGCGCCATCTAC”: the binding signal (RPM ratio (pull-down/input)) turned out to be 0.351.

As for “GATGATTGTTCTCCCAGCTGATGAATTGCACCAGTCGAGTAAACAAATTTTCCTAATCTTTCTGTTCAAGCGCCATCTAC”, the binding signal (RPM ratio (pull-down/input)) came out at 0.607.

For the sequence “GATGATTGTTCTCCCAGCTGATGAATTCGATATCTCGAGTAAACAAATTTTCCTAATCTTTCTGTTCAAGCGCCATCTAC”, the binding signal (RPM ratio (pull-down/input)) stood at 1.35.

“GATGATTGTTCTCCCAGCTGATGAATTAGAACGCTCGAGTAAACAAATTTTCCTAATCTTTCTGTTCAAGCGCCATCTAC”: the binding signal (RPM ratio (pull-down/input)) came to 0.346.

As for “GATGATTGTTCTCCCAGCTGATGAATTGGAAAAGTCGAGTAAACAAATTTTCCTAATCTTTCTGTTCAAGCGCCATCTAC”, the binding signal (RPM ratio (pull-down/input)) is 0.135.

Consider “GATGATTGTTCTCCCAGCTGATGAATTCACCATCTCGAGTAAACAAATTTTCCTAATCTTTCTGTTCAAGCGCCATCTAC”, for which the binding signal (RPM ratio (pull-down/input)) is 0.399.

On to “GATGATTGTTCTCCCAGCTGATGAATTCGTGGCGTCGAGTAAACAAATTTTCCTAATCTTTCTGTTCAAGCGCCATCTAC”, for which the binding signal (RPM ratio (pull-down/input)) was found to be 1.02.

Take “GATGATTGTTCTCCCAGCTGATGAATTAGGTTGCTCGAGTAAACAAATTTTCCTAATCTTTCTGTTCAAGCGCCATCTAC”: the binding signal (RPM ratio (pull-down/input)) turned out to be 1.25.

As to “GATGATTGTTCTCCCAGCTGATGAATTGATCTATTCGAGTAAACAAATTTTCCTAATCTTTCTGTTCAAGCGCCATCTAC”, the binding signal (RPM ratio (pull-down/input)) stood at 0.433.

On to “GATGATTGTTCTCCCAGCTGATGAATTACACCTCTCGAGTAAACAAATTTTCCTAATCTTTCTGTTCAAGCGCCATCTAC”, for which the binding signal (RPM ratio (pull-down/input)) came to 0.705.

On to “GATGATTGTTCTCCCAGCTGATGAATTCCGGCTATCGAGTAAACAAATTTTCCTAATCTTTCTGTTCAAGCGCCATCTAC”, for which the binding signal (RPM ratio (pull-down/input)) was found to be 0.522.

For the sequence “GATGATTGTTCTCCCAGCTGATGAATTAAACTAATCGAGTAAACAAATTTTCCTAATCTTTCTGTTCAAGCGCCATCTAC”, the binding signal (RPM ratio (pull-down/input)) amounted to 0.336.
